Experimental data reported in article PMC4336329 (PLoS ONE, 2015).
Screen size: about 310,000 compounds; about 14,000 (4.5%) showed an effect of 50% or more. The effect is printed as a negative number. Some of the results follow.

These compounds were tested against human ether-à-go-go-related gene (hERG) potassium channel (human, UniProt Q12809) (assay: primary screen, population patch clamp on CHO cells stably expressing hERG).
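Also: peak tail current of the secondary pulse compared with the same well before compound.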

Chain of human ether-à-go-go-related gene (hERG) potassium channel (Q12809 whole entry, looked up): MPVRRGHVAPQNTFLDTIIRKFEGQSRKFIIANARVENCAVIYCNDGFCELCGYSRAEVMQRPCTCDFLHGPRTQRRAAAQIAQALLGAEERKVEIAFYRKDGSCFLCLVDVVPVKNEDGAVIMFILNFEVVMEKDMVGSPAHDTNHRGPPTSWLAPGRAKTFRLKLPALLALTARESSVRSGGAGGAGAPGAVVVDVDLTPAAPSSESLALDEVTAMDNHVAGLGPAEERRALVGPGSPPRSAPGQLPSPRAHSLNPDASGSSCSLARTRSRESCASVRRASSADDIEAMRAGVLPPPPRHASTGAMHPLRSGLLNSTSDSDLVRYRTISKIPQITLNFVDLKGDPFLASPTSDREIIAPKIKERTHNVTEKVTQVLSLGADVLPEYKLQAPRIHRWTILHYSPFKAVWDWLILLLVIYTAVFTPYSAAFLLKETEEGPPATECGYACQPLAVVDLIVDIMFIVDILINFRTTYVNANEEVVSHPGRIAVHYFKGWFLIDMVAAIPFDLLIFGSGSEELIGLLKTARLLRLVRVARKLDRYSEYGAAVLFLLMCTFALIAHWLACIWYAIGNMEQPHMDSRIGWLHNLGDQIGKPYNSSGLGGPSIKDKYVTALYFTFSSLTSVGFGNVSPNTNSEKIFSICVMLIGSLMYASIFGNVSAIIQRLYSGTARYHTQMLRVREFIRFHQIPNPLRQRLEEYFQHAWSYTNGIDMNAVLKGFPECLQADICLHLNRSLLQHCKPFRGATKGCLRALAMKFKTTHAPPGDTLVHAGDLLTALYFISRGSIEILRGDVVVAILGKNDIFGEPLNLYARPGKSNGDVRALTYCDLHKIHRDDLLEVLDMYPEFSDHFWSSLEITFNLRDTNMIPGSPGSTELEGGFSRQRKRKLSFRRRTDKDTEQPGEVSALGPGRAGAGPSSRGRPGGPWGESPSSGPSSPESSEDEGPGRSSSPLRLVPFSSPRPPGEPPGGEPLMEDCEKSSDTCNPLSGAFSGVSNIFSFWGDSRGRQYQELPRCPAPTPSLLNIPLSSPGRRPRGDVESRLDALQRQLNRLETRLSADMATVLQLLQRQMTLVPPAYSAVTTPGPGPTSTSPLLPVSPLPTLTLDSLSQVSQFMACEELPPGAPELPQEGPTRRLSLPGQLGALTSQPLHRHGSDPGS

SMILES | hERG current change (%, negative = inhibition) at 10uM [%]
O=C(Nc1cccc(NC(=O)c2cccs2)c1)c1ccc(Br)o1 | -44
CCN(Cc1ccccc1)C(=O)c1cc(S(=O)(=O)N2CCOCC2)ccc1N1CCCC1 | -39.3
CCCCC1C2=C(CCCC2=O)OC2=C1C(=O)CCC2 | -14.9
Cc1cc2c(C)ccc(C)c2nc1SCC(=O)c1cccs1 | 26
CCN(Cc1ccncc1)C(=O)C1CCN(S(=O)(=O)c2cccs2)CC1 | 5.09
Cc1ccc(-n2nc(C)c(/C=N/NC(=O)c3cccs3)c2Cl)cc1 | 5.12
CCOc1ccc(C(=O)Nc2cc(C)on2)cc1 | -2.55
CCC(C)c1ccc(NC(=O)Nc2cnccn2)cc1 (centres unmarked) | 13.4
CC(OC(=O)c1ccc(F)c(S(=O)(=O)N2CCOCC2)c1)C(=O)NCC1CCCCC1 (centres unmarked) | 1.84
Cc1ccc(C(=O)N2CCC3(CC2)NCCc2[nH]cnc23)cc1C | 8.58
COc1ccc2c(OC)c3ccoc3nc2c1OC | 8.18
CCCCCCCC(=O)N1c2ccccc2NC(=O)C1CC(=O)Nc1ccc(C(=O)O)cc1 (centres unmarked) | 13.6
COc1ccc(NS(=O)(=O)c2cc(OC)ccc2NC(=O)c2cc(C)oc2C)cc1 | -3.45
C=CCNC(=O)NC(=O)COC(=O)CC(NC(N)=O)c1ccc(Cl)cc1 (centres unmarked) | 7.1
COc1ccc(CCN(C)CC(=O)Nc2cc(C)nc3ccccc23)cc1OC.O=C(O)C(=O)O | 5.34
Cc1ccc2cc(CN(CCN3CCCC3)C(=O)Nc3ccccc3)c(=O)[nH]c2c1C | -57.8
Cc1ccc(NC(=O)CCNC(=O)c2ccc([N+](=O)[O-])cc2)cc1S(=O)(=O)N(C)C | -66.9
Cc1ccc(C(=O)N/N=C/c2cc(Br)ccc2O)cn1 | -0.323
CCN1CCN(c2nc(-c3cccnc3)nc3ccccc23)CC1.Cl | -55.4
COc1ccc(Nc2nc(N)c([N+](=O)[O-])c(NCc3ccccc3)n2)cc1 | 0.168
COc1ccccc1CCNS(=O)(=O)c1cn(C)nc1C | 1.14
Cc1ccc(C(=O)NCC(=O)O)cc1S(=O)(=O)N1CCCCC1 | 18.5
O=S(=O)(c1ccc(Cl)cc1)N1CN(CC2CCCO2)c2nc3ccccc3nc21 (centres unmarked) | -9.72

SMILES | hERG current change (%, negative = inhibition) at 10uM [%]
Clc1ccc(-c2cc(-c3ccccc3)on2)cc1 | 5.36
COc1ccc(/C(O)=C2/C(=O)C(=O)N(CCN3CCNCC3)C2c2cccc([N+](=O)[O-])c2)cc1 (centres unmarked) | 25.3
CC1(C)CC(NC(=O)c2sc3cc(Cl)ccc3c2Cl)CC(C)(C)N1 | -15.3
Cc1ccc(-n2[nH]c(C)c(C=Nc3ccc(S(=O)(=O)N4CCOCC4)cc3)c2=O)c(C)c1 | -7.6
O=C(Nc1cc(F)ccc1F)C1CCCN1S(=O)(=O)c1cccc2nsnc12 (centres unmarked) | -24.3
COc1ccc(N=Cc2ccc(CNS(=O)(=O)c3ccc(Cl)cc3)o2)cc1 | 12.1
C[n+]1cn(CC(O)COCc2ccccc2)c2ccccc21.[I-] (centres unmarked) | 24
CC(C)CN(CC(C)C)c1nnc(N)s1 | 4.06
CNc1nc(N/N=C/c2ccc([N+](=O)[O-])cc2)nc(Nc2ccccc2)n1.Cl | -16.7
COc1ccc(C2CN(C)CC2C(=O)c2ccc(F)cc2)cc1Cl (centres unmarked) | -78.7
CC1CCN(C(=O)c2ccc(N3C(=O)C4CCC(C)CC4C3=O)cc2)CC1 (centres unmarked) | 17
Cc1ccn2cc(CCNC(=O)Cc3cccs3)nc2c1 | -15.5
O=C(CCN1C(=O)C2C3CC(C(Br)C3Br)C2C1=O)OCC(=O)c1ccccc1 (centres unmarked) | -18.2
Cc1c(CC(=O)NCCCCCC(=O)O)c(=O)oc2c(C)c3oc4c(c3cc12)CCCC4 | 20.4
COc1ccccc1-c1cnn2c(NC3CCCC3)cc(C)nc12 | 12.8
O=C(Nc1cc(S(=O)(=O)N2CCOCC2)ccc1N1CCOCC1)c1ccccc1F | -9.18
COc1ccc(Cl)cc1NC(=O)CN(C)C(=O)Cn1cnc2c1c(=O)n(C)c(=O)n2C | -11.4
Cc1c(Cl)cnn1CC(=O)NC1C(=O)N2C(C(=O)O)=C(CSc3nnnn3C)CSC12 (centres unmarked) | 11.9
Cc1c(NC(=O)CN2CCCC(C)C2)ccc2nsnc12 (centres unmarked) | 33.6
CCN(CC)CCN(C(=O)C1=COCCO1)c1nc2cc(C)cc(C)c2s1.Cl | -69
Cc1cc(S(=O)(=O)N2CCN(c3ccccc3C)CC2)ccc1F | 1.78
CN(C)C=O.O=C(Nc1cccc(S(=O)(=O)NC2=NCCCCC2)c1)c1cc(-c2ccco2)nc2ccccc12 | 19.7
CC(C)C(C(=O)Nc1ccccc1F)N1C(=O)c2ccccc2C1=O (centres unmarked) | -3.78

SMILES | hERG current change (%, negative = inhibition) at 10uM [%]
CCOC(=O)c1c(S(=O)(=O)NCc2ccc(OC)cc2)c(C)n(C)c1C | -15.1
Cn1c(=O)n(CC#N)c2ccccc21 | 15.7
C/C(=N\Nc1ncc(Cl)cc1Cl)c1ccc(C#N)cc1 | -4.88
CCN=C1NN=C(c2cc(C)n(Cc3ccco3)c2C)CS1 | 18.9
COc1ccccc1NCCC(=O)OCC(=O)NC1CCCC(C)C1C (centres unmarked) | 9.37
COc1cc(C2/C(=C(\O)c3cc(C)ccc3C)C(=O)C(=O)N2CCN(C)C)ccc1O (centres unmarked) | 7.57
N#CC1=C(N)NC(SCC(=O)Nc2ccccc2)=C(C#N)C12CCCC2 | -5.85
O=C(O)c1ccc(CNC(=O)c2ccccc2NC(=O)c2ccc([N+](=O)[O-])cc2)cc1 | 16.9
CCc1ccccc1NC(=O)C1CC(c2ccc(F)cc2)=NO1 (centres unmarked) | 4.94
CN(C)Cc1c(O)ccc2ccccc12 | 0.0591
COc1ccc2nc(NC(=O)NC3CCCCC3)sc2c1 | 15.1
Cn1c(SCC(=O)NC2CCCC2)nnc1-c1ccccn1 | 12.2
CC(NC(=O)C(c1ccccc1)c1ccccc1)C(=O)N1CCCCC1 (centres unmarked) | -10.6
CCOC(=O)NC(c1ccccc1)C1CCCCC1=O (centres unmarked) | 3.81
Cc1nc2ccccc2nc1N/N=C/c1ccc(O)cc1O | -6.44
COC(=O)c1cc(C(C)=O)n2ccccc12 | -11.6
CC(C)CCn1c(SCC(=O)NC2CC2)nc2cc(Cl)ccc2c1=O | 14
COC(=O)c1ccc2c(c1)N(C)S(=O)(=O)c1cnc(SCC(=O)C(C)(C)C)nc1-2 | 14.7
COc1ccc(-n2nnnc2SCC(=O)Nc2ccccc2F)cc1 | 12.3
CCn1c(SC(C)C(=O)O)nc2sc3c(c2c1=O)CCC3 (centres unmarked) | 22.2
Cc1ccc(C(=O)Nc2cccc(C(=O)O)c2)cc1 | 14.4
Cc1ccc2c(c1)cc1c(=O)n(CC(=O)N(C)c3ccccc3)nc(C)n12 | 0.0802
Cc1[nH]c2ccccc2c1C(=O)CSC(=S)N(C)C1CCCCC1 | -3.52

SMILES | hERG current change (%, negative = inhibition) at 10uM [%]
O=C(Nc1c[nH]c(=O)[nH]c1=O)c1cccc([N+](=O)[O-])c1 | 14.7
O/N=C/c1cn(-c2ccc(Cl)cc2)nn1 | -5.87
CN(C(=O)COc1ncnc2sccc12)C1CCCCC1 | -0.342
COc1cccc(NC(=O)c2cccnn2)c1 | 19.7
Cc1cc(Cl)c2ccccc2n1.O | 0.0587
CCOC(=O)Cc1csc(NC(=O)COc2cc(C)cc(C)c2)n1 | 5.84
CC(C)COc1nc2ccccc2nc1C(C#N)C(=O)NC1CCCCC1 (centres unmarked) | 10.1
Cc1cc(C)cc(NC(=O)c2ccc(NC(=O)C3C4CC5OC(=O)C3C5C4)cc2)c1 (centres unmarked) | 9.84
COc1cc(C(=O)O)nc2ccccc12 | 11.5
COc1ccc(CCN2CC(C(=O)N(C)C3CCOCC3)CCC2=O)cc1 (centres unmarked) | 8.23
Oc1c(N=NC(=S)Nc2ccccc2F)c2ccccc2n1Cc1ccccc1Cl | 19.4
COc1ccc(Cc2nnc(NC(=O)c3ccc(C)cc3)s2)cc1OC | 14.2
CN(Cc1ccc2nsnc2c1)Cc1nc(Cc2cccc(F)c2)no1 | -18.8
CN1C[C@@H]2C(c3ccccc3)C3(c4cccnc4)CC2(C3)[C@H]1c1ccccc1 (some centres unmarked) | -46.5
Cc1sc2nc(CSc3ccc([N+](=O)[O-])cc3)[nH]c(=O)c2c1C | 6.57
COc1ccc(-c2csc3ncn(-c4ccc(C)cc4)c(=O)c23)cc1OC | 37.8
CC(C)c1ccc(N(CC(=O)NCCSCc2ccco2)S(C)(=O)=O)cc1 | -12.1
O=[N+]([O-])c1ccc(Cl)c(S(=O)(=O)NCC2CCCO2)c1 (centres unmarked) | -4.06
CNS(=O)(=O)c1cc(S(=O)(=O)NC)c2cccc3c2c1NC3=O | 17.1
CCCCn1c(N)c(N(CCOC)C(=O)c2cc3c(s2)CCCCC3)c(=O)[nH]c1=O | 10.2
